Experimental data taken from the supplement of paper PMC8728848.
The other results are listed elsewhere or left out.

Tests used:
Experiment in all cases: glycan array binding signal (z-score within array); higher = stronger binding
Details in all cases: glycan notation: IUPAC condensed, linker removed
[1] = molecular target: Neu5Ac(a2-6)Gal(b1-4)GlcNAc(b1-2)Man(a1-3)[GlcNAc(b1-4)][Neu5Ac(a2-6)Gal(b1-4)GlcNAc(b1-2)Man(a1-6)]Man(b1-4)GlcNAc(b1-4)GlcNAc
Method in brief: (§1)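 Columns mapping to the same glycan were averaged after glycan names were converted to IUPAC-condensed notation. The data come from 3228 arrays in the Consortium for Functional Glycomics database, limited to those with an available protein sequence. Binding is reported as a within-array Z-score averaged across arrays of one protein sequence and across linkers.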

[2] = molecular target: Neu5Ac(a2-6)Gal(b1-4)GlcNAc(b1-2)Man(a1-3)[Man(a1-6)]Man(b1-4)GlcNAc(b1-4)GlcNAc
Method in brief: as §1

[3] = molecular target: Neu5Ac(a2-6)Gal(b1-4)GlcNAc(b1-2)Man(a1-3)[Neu5Ac(a2-3)Gal(b1-4)GlcNAc(b1-2)Man(a1-6)]Man(b1-4)GlcNAc(b1-4)GlcNAc
Method in brief: as §1

[4] = molecular target: Neu5Ac(a2-6)Gal(b1-4)GlcNAc(b1-2)Man(a1-3)[Neu5Ac(a2-6)Gal(b1-4)GlcNAc(b1-2)Man(a1-6)]Man(b1-4)GlcNAc(b1-4)GlcNAc
Method in brief: as §1

[5] = molecular target: Neu5Ac(a2-6)Gal(b1-4)GlcNAc(b1-2)Man(a1-3)[Neu5Ac(a2-6)Gal(b1-4)GlcNAc(b1-2)Man(a1-6)]Man(b1-4)GlcNAc(b1-4)[Fuc(a1-6)]GlcNAc
Method in brief: as §1

[6] = molecular target: Neu5Ac(a2-6)Gal(b1-4)GlcNAc(b1-2)Man(a1-6)Man(b1-4)GlcNAc(b1-4)GlcNAc
Method in brief: as §1

[7] = molecular target: Neu5Ac(a2-6)Gal(b1-4)GlcNAc(b1-2)Man(a1-6)[Gal(b1-4)GlcNAc(b1-2)Man(a1-3)]Man(b1-4)GlcNAc(b1-4)GlcNAc
Method in brief: as §1

[8] = molecular target: Neu5Ac(a2-6)Gal(b1-4)GlcNAc(b1-2)Man(a1-6)[GlcNAc(b1-2)Man(a1-3)]Man(b1-4)GlcNAc(b1-4)GlcNAc
Method in brief: as §1

[9] = molecular target: Neu5Ac(a2-6)Gal(b1-4)GlcNAc(b1-2)Man(a1-6)[Man(a1-3)]Man(b1-4)GlcNAc(b1-4)GlcNAc
Method in brief: as §1

[10] = molecular target: Neu5Ac(a2-6)Gal(b1-4)GlcNAc(b1-2)[Neu5Ac(a2-6)Gal(b1-4)GlcNAc(b1-4)]Man(a1-3)[GlcNAc(b1-4)][Neu5Ac(a2-6)Gal(b1-4)GlcNAc(b1-2)[Neu5Ac(a2-6)Gal(b1-4)GlcNAc(b1-6)]Man(a1-6)]Man(b1-4)GlcNAc(b1-4)GlcNAc
Method in brief: as §1

[11] = molecular target: Neu5Ac(a2-6)Gal(b1-4)GlcNAc(b1-2)[Neu5Ac(a2-6)Gal(b1-4)GlcNAc(b1-4)]Man(a1-3)[GlcNAc(b1-4)][Neu5Ac(a2-6)Gal(b1-4)GlcNAc(b1-4)Man(a1-6)]Man(b1-4)GlcNAc(b1-4)GlcNAc
Method in brief: as §1

[12] = molecular target: Neu5Ac(a2-6)Gal(b1-4)GlcNAc(b1-2)[Neu5Ac(a2-6)Gal(b1-4)GlcNAc(b1-6)]Man(a1-6)[Neu5Ac(a2-6)Gal(b1-4)GlcNAc(b1-2)Man(a1-3)][GlcNAc(b1-4)]Man(b1-4)GlcNAc(b1-4)GlcNAc
Method in brief: as §1

[13] = molecular target: Neu5Ac(a2-6)Gal(b1-4)GlcNAc(b1-3)Gal(b1-3)GlcNAc
Method in brief: as §1

[14] = molecular target: Neu5Ac(a2-6)Gal(b1-4)GlcNAc(b1-3)Gal(b1-4)GlcNAc
Method in brief: as §1

[15] = molecular target: Neu5Ac(a2-6)Gal(b1-4)GlcNAc(b1-3)Gal(b1-4)GlcNAc(b1-2)Man(a1-3)[Neu5Ac(a2-6)Gal(b1-4)GlcNAc(b1-3)Gal(b1-4)GlcNAc(b1-2)Man(a1-6)]GalNAc
Method in brief: as §1

[16] = molecular target: Neu5Ac(a2-6)Gal(b1-4)GlcNAc(b1-3)Gal(b1-4)GlcNAc(b1-3)Gal(b1-4)GlcNAc
Method in brief: as §1

[17] = molecular target: Neu5Ac(a2-6)Gal(b1-4)GlcNAc(b1-3)Gal(b1-4)GlcNAc(b1-3)Gal(b1-4)GlcNAc(b1-2)Man(a1-3)[Neu5Ac(a2-6)Gal(b1-4)GlcNAc(b1-3)Gal(b1-4)GlcNAc(b1-3)Gal(b1-4)GlcNAc(b1-2)Man(a1-6)]GalNAc
Method in brief: as §1

[18] = molecular target: Neu5Ac(a2-6)Gal(b1-4)GlcNAc(b1-3)Gal(b1-4)GlcNAc(b1-3)GalNAc
Method in brief: as §1

[19] = molecular target: Neu5Ac(a2-6)Gal(b1-4)GlcNAc(b1-3)Gal(b1-4)GlcNAc(b1-3)[Neu5Ac(a2-6)Gal(b1-4)GlcNAc(b1-3)Gal(b1-4)GlcNAc(b1-6)]GalNAc
Method in brief: as §1

[20] = molecular target: Neu5Ac(a2-6)Gal(b1-4)GlcNAc(b1-3)Gal(b1-4)GlcNAc(b1-6)[Gal(b1-3)]GalNAc
Method in brief: as §1

[21] = molecular target: Neu5Ac(a2-6)Gal(b1-4)GlcNAc(b1-3)Gal(b1-4)[Fuc(a1-3)]GlcNAc(b1-3)Gal(b1-4)[Fuc(a1-3)]GlcNAc
Method in brief: as §1

[22] = molecular target: Neu5Ac(a2-6)Gal(b1-4)GlcNAc(b1-3)GalNAc
Method in brief: as §1

[23] = molecular target: Neu5Ac(a2-6)Gal(b1-4)GlcNAc(b1-3)[Neu5Ac(a2-6)Gal(b1-4)GlcNAc(b1-6)]GalNAc
Method in brief: as §1

[24] = molecular target: Neu5Ac(a2-6)Gal(b1-4)GlcNAc(b1-6)GalNAc
Method in brief: as §1

[25] = molecular target: Neu5Ac(a2-6)Gal(b1-4)GlcNAc(b1-6)[Gal(b1-3)GlcNAc(b1-3)]Gal(b1-4)Glc
Method in brief: as §1

[26] = molecular target: Neu5Ac(a2-6)Gal(b1-4)GlcNAc(b1-6)[Gal(b1-3)]GalNAc
Method in brief: as §1

[27] = molecular target: Neu5Ac(a2-6)Gal(b1-4)GlcNAc6S
Method in brief: as §1

Neu5Ac(a2-6)GalNAc = molecular target: Neu5Ac(a2-6)GalNAc
Method in brief: as §1

[28] = molecular target: Neu5Ac(a2-6)GalNAc(b1-4)GlcNAc
Method in brief: as §1

[29] = molecular target: Neu5Ac(a2-6)GalNAc(b1-4)GlcNAc6S
Method in brief: as §1

[30] = molecular target: Neu5Ac(a2-6)GlcNAc(b1-4)GlcNAc
Method in brief: as §1

APVPVTKLVCDGDTYKCTAYLDFGDGRWVAQWDTNVFHTG [PhoSpL (Pholiota squarrosa)]
glycan array binding signal (z-score) [1]: -0.368
glycan array binding signal (z-score) [2]: -0.244
glycan array binding signal (z-score) [3]: -0.405
glycan array binding signal (z-score) [4]: -0.25
glycan array binding signal (z-score) [5]: 4.01
glycan array binding signal (z-score) [6]: -0.048
glycan array binding signal (z-score) [7]: -0.355
glycan array binding signal (z-score) [8]: -0.639
glycan array binding signal (z-score) [9]: -0.232
glycan array binding signal (z-score) [10]: -0.591
glycan array binding signal (z-score) [11]: -0.382
glycan array binding signal (z-score) [12]: -0.203
glycan array binding signal (z-score) [13]: -0.422
glycan array binding signal (z-score) [14]: 0.045
glycan array binding signal (z-score) [15]: 0.095
glycan array binding signal (z-score) [16]: 0.037
glycan array binding signal (z-score) [17]: 0.668
glycan array binding signal (z-score) [18]: -0.287
glycan array binding signal (z-score) [19]: 0.487
glycan array binding signal (z-score) [20]: -0.257
glycan array binding signal (z-score) [21]: -0.067
glycan array binding signal (z-score) [22]: -0.044
glycan array binding signal (z-score) [23]: 0.236
glycan array binding signal (z-score) [24]: 0.412
glycan array binding signal (z-score) [25]: -0.255
glycan array binding signal (z-score) [26]: -0.451
glycan array binding signal (z-score) [27]: 0.008
glycan array binding signal (z-score) (Neu5Ac(a2-6)GalNAc): -0.215
glycan array binding signal (z-score) [28]: 0.041
glycan array binding signal (z-score) [29]: -0.296
glycan array binding signal (z-score) [30]: -0.342
